Data as given in the supplement of paper PMC11417369.
± gives the standard deviation of the averaged measurements. This is one part of the list.

Each sequence was assayed on PfAP2-G AP2 domain (GST-tagged) (assay: gcPBM binding intensity (ln(normalized median fluorescence intensity)); higher = stronger DNA binding).
Method in brief: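 The highest Masliner-normalised natural-log median intensity across replicate spots of either probe orientation is reported as binding intensity. GST-tagged P. falciparum DNA-binding domains expressed in E. coli were applied for 1 h to an Agilent 4 × 180k array of primer-extended double-stranded 36-bp intergenic genomic probes plus negative controls, and bound protein was detected with Alexa488 anti-GST antibody and scanned at 488 nm.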

Sequence | gcPBM binding intensity (ln)
TAAAAAATTACATATTGTACAGGCAAAATTACACAT [XGTACX_site1152] | 10.6 ± 0.4
ACTAAACGAATAAATTGTACAAAGAAATATATTCAT [XGTACX_site6766] | 10.9 ± 0.57
ACTACGTGGATTAGTTCAAGGGAACACGTCCTATAC [CACACA_negctrl_site1427] | 10.4 ± 0.15
CAACAAAAGTTATTTACACACAAAAGGCAAGGAAAT [CACACA_site7013] | 10.31 ± 0.064
AAAAAATATATATGCACACACAAAAAAACAAATTAA [CACACA_site1278] | 10.2 ± 0.16
AATATAAAAAATAGTTGTACTATATTTAAATATGAC [XGTACX_site2937] | 11.2 ± 0.85
AGTTTGCATATGGAAGTGCATTACCTTGAACATCAT | 10.055 ± 0.007
TCATATAAATACACGTGTACATATATATATTACAGT [XGTACX_site1954] | 11.5 ± 0.81
TATATGTTTTATAGTACACACATAAATGGACATACT [CACACA_site2191] | 11.4 ± 0.83
TGAATTTAGATATATACACACAAAAGTATATACAAT [CACACA_site2804] | 10.04 ± 0.035
TTTTTTTTATATAGTAGTACTAATTAGAATTTTTAT [XGTACX_site7476] | 11.2 ± 0.65
CCCACTAAAAAACACACACACACACCCATATATATA [CACACA_site6140] | 9.98 ± 0.18
ATATGTATTAAGTGTACACATATAATCTATCTTGTT [CACACA_site5329] | 11.5 ± 0.87
CTCAAATGTTATTGTAGTACCTAAAAAATATATTCT [XGTACX_site1970] | 11.2 ± 0.61
TACATACATACATACACACATACATATGTATATATA [CACACA_site2480] | 10.4 ± 0.17
TAATGCCATAATACGTGTACTTAATATATTAGAACA [XGTACX_site5809] | 11.4 ± 0.89
ACCATATAAATAAACACACACACACGGATATAAATA [CACACA_site7157] | 10.1 ± 0.18
GTTGGTAGGCGGTACGGTACACGTAAAGTTTTTCTT [XGTACX_site7706] | 11.2 ± 0.45
ATAAATGACAAATTAACACACATATATTATATATAT [CACACA_site3899] | 9.95 ± 0.099
AGTGGTGTTAAATGTTGTACGATTTTGTGTTATTCG [XGTACX_site178] | 11.3 ± 0.87

Sequence | gcPBM binding intensity (ln)
TTTTTGTTATATAAAGTGCAGTGACAAGCAGTTTAA | 10.2 ± 0.27
ATTTAAGCATTATTTTGTACGAAAATAAAAAAATGA [XGTACX_site6958] | 10.8 ± 0.52
ATATAAAAAAATAAAACACACACATATATATTATAT [CACACA_site8909] | 9.94
TATAATGCTCTTCTTTGTACATATTATGATTATATT [XGTACX_site2332] | 10.7 ± 0.4
AAAGGAAAATGTGTAAAAAGAAATGCTAGGTATATA [GTGCAC_negctrl_site699] | 9.77 ± 0.27
ATATATATATAATATAGTACGTATAATATATGAATC [XGTACX_site4385] | 11.2 ± 0.73
ATATCATTTTCTAGCACACACATTGTTATTACCTTG [CACACA_site902] | 10.095 ± 0.007
AGTCTGAATAAAATTACACACATATACAGATATATA [CACACA_site5054] | 9.8 ± 0.014
TTTTTTTAAATATACACACACATTTATACAGATATA [CACACA_site5811] | 10.2 ± 0.27
TTTCTAAAAATAAGAACACACACATATAAGCATATA [CACACA_site8714] | 10.12 ± 0.099
TATTAGAACATATATGCATGCAATAGATATTCCAAT [TGCATGCA_site297] | 9.49 ± 0.16
TATGTATAATTTCATTGTACTTTTGATATTATCATA [XGTACX_site280] | 11.2 ± 0.92
AAGAAAAAGGAACGGAAAAACAAACAAGGGGCCCAA [TGCATGCA_negctrl_site4] | 10.8 ± 0.63
AATGGTATAAACAATACACACATAATATATATATTG [CACACA_site4997] | 10.05 ± 0.085
TTTTCTAAATTAATAATACACACTTGCTAAAATCAT [CACACA_site3207] | 10.1 ± 0.19
ACTGCGTTTTTACACGCGCACTGCAATGAACAATAT | 10.3 ± 0.2
TATGTAACAAAAAAAAGTACACATATATATAGTGTA [XGTACX_site7772] | 11.6 ± 0.85
AAGATAATCACAAAATGTACAGGAAATATGACAACC [XGTACX_site3607] | 11 ± 0.5
TTTAAATATTACATATGTACTTATAAATATATATAT [XGTACX_site1284] | 11.2 ± 0.64
AAGGAATAGGCATATACACACAGGTACAGATATATA [CACACA_site4402] | 11 ± 0.46

Sequence | gcPBM binding intensity (ln)
AAAAAAAAAAAAAACACACAAATCATAAATAAATAT [CACACA_site6362] | 10.1 ± 0.36
ATTATGTGCCAATACACACACACATATATATATATA [CACACA_site468] | 10.2 ± 0.13
TAAAATATGTCATGTGGTACATGAATAGCTTTTATT [XGTACX_site3809] | 11 ± 0.64
AAAAAAAAAATTGAAAGTACAAATATGTATTATATA [XGTACX_site2455] | 10.8 ± 0.53
TAATAGTATATAAAAAGTACATAATAAGATATGAAA [XGTACX_site1000] | 11.3 ± 0.83
TTATTTTTTATTATGTGTACATAACATCGCGATACA [XGTACX_site4359] | 11.5 ± 0.98
AAAACTTGTCAGAATGGACACACGAATTAAAGGCCT [CACACA_site1215] | 10.5 ± 0.33
TATTTATACATACATACACACATATAGATTTATATT [CACACA_site7851] | 10.1 ± 0.13
CAACATTCGTATATCACACATTTGCATGTTGTCAAT [CACACA_site4470] | 10.3 ± 0.25
GATTTAGTTATTTAAACATGCAATTTATATAGAATT [TGCATGCA_site47] | 9.98 ± 0.3
ATAATCACAAATAATTGTACATTTTGTTATATATAT [XGTACX_site7704] | 10.8 ± 0.45
AAAAATTTCATATTCACACACAAAAAAAAAAAATAT [CACACA_site1592] | 10 ± 0.2
TGATATATATATATATATATAACACACGCAAAAAAA [TGCATGCA_negctrl_site240] | 9.995 ± 0.049
TATGTCAAATATATATGTACACAAATATACTATTAA [XGTACX_site2643] | 11.4 ± 0.91
AATATATATATTAGAGTGCACATAATTATTTGCTAA | 10.2 ± 0.24
ATAAAATATATATTAGTGCACTAAAGGAAAAAAAAT | 10.5 ± 0.32
ATTTAAATAATATTCACACACAAAATTATATTTTAA [CACACA_site219] | 9.78 ± 0.042
AAGTTTTCTTAAAATTGTACTTTTCAAAAATAATCT [XGTACX_site277] | 11.3 ± 0.85
